Variants at the floor of the assay are shown more often than the library holds them.
B1: TPR 5TU (parent)
chain: GGAUCUUCUCGAUCUAACAAAAAAGACAAAUCUGCCACAAAGCUUGAGAGCAUCUUCGGAUGCAGAGGCGGCAGCCUUCGGUGGCGCGAUAGCGCCAACGUUCUCAACUAUGACACGCAAAACGCGUGCUCCGUUGAAUGGAGUUUAUCAUG

Variants of: B1
Test: polymerase ribozyme fitness, log enrichment relative to wild type (log ratio); higher = more active; in vitro selection for triplet polymerase activity
Method in brief: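 Fitness is a logarithmic measure of how a genotype enriched relative to the wild type, with replicate averages weighted by inverse variance. The logarithm uses base 2, and enrichment came from Illumina sequencing of input and output libraries. Those libraries were PCR-built, transcribed mutants of each subunit of a heterodimeric triplet polymerase ribozyme, passed through one triplicate in vitro selection round that included frozen incubation at −7 °C, gel excision of extended constructs and streptavidin-bead capture. Genotypes were kept only if they had ≥10 input reads and ≥1 read per output.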

Polymerase ribozyme fitness (log ratio), -4.18:
GGAUCUUCUCGAUCUAACAAAAACGACAAAUCUACCACAAAGCUUGAGAGCAUCUUCGGAUGCAGAGGCGGCAGCCUUCGGUGGCGAGAUAGCGCCAACGUUCUCAACUAUGACACGCAAAACGCUUGCUCCGUUGAAUGGAGUUUAUCAUG

Polymerase ribozyme fitness (log ratio), ≤ -4.2:
GGAUCUUCUCGAUCUAACAAAAACGACAAAUCUGCCACAAAGCUUGAGAGCAUCUUCGGAUGCAGACGCGGCAGCCUUCGGUGGCGCGAUAUCGCCAAUGUUCUCAACGUUGACACGCAAAACGCGUGCUCCGUUGAAUGGAGUUUAUCAUG
GGAUCUUCUCGAUCUAACAAAAACGACAAAUCUGCCACAAAGCUUGAGAGCAUCUUCGGAUGCAGAGUCGGCAGGGUUCGGUGGCGCGAUAGCGCCAACGUUCUCAACUGUGACACGCAAUACGCGUGCUCCGUUGAAUGGAGUUUAUCAUG
GGAUCUUCUCGAUCUAACAAAAACGACAAAUCUGCCACAAAGCUUGAGAGCAUCUUCGGAUGCAGAGGCGGCAGCCUUCGGUGGCCCGAUAGCGCCAACGUUCUCAACUAUGACACGCAAAACGCGUGCUCCGUUGAAUGGAAUUUACCAUG
GGAUCUUCUCGAUCUAACAAAAAGGUCAAAUCUGCCACAAAGCUUGAGAGCAUCUUCUGAUGCAGAGGCGGCAGCCUUCGGUAGCGCGAUAAUGCCAACGUUCUGAACUAUGACACGCAAAACGCGUGCUCCGUUGAAUGGCGUUUAUCAUG
GGAUCUUCUCGAUCUAACAAAAAGGACAAAUCUGCCACAAAGCUUGAGAGCAUCUUCGGAUGCAGAGGCGGCAGCCUUCGGUGGCGCGAUAGCGCCAACGUUCUCAACUAUGACACGCAAAACGCGUGCUCCGUUGGAUGGAGUUUAUCAUG
GGAUCUUCUCGAUCUAACAAAAAGGACAAAUCUGCCACAAAGCUUGAGAGCCUCUUCCCAUGCAAAGGCGGCAGCCUUCCGUGGCGCGAUAGCGCUAACGGUCUCAACUAUGACACGCAAAACGCGUGCUCCGUUGAAUUUAGUUUAUCAUG
GGAUCUUCUCGAUCUAACAAAAAGGACAAAUCUGCCACACAGCUUGAGAGCAUCUUCGGAUGCAGAGGCGGCAGCCUUCGGUGGCGCGACAGCGCCAACGUUCUCAACUAUGACACGCAAAACGCGGGCUCCGUUGAAUGGGCUUUAUCAUG
GGAUCUUCUCGAUCUAACAAAAAGGACAAGUCUGCCACAAAGCUUGAGAGCAUCUUCGGAUGCAGAGGCGGCAGCCUUCGGUGGCGCGAUAGCGCCAACGUUCUCAACUAUGACACGCAAAACGCGUGCUCCGUUGAAUGGAGUUUAUCAUA
GGAUCUUCUCGAUCUAACAAAAACGACAAAUCUGCCACAAAGCUUGAGAGCAUCUCCGGAUGCAGAGGCGGCAGCCUUCGGUGGCGCCCUAGCGCCAACGUUCUCAACUAUGACACGCAAAACGCGAGCUCCGUUGAAUGGAGUUUAUCAUG
GGAUCUUCUCGAUCUAACAAAAAGGCCAAAUCUGCCACAAAGCUUGAGAGCAUCUGCGGAUGCAGAGGCGGUAGCCUUCGGUGGCGCGAUAGCGCCAACGUUCUCAAGUAUGACACGCAAAACGCGUGAUCCGUUGAAUCGAGUUCAUCAUG
GGAUCUUCUCGAUCUAACAAAAACGACAAAUCUGCCACAAAGCUUGAGAGCAUCUUCGGAUGCAGAGGCGGCAGCCUUCGGUGUCGCGAUAGCGCCAACGUUCUCAACUAUGAGACGCAAAACGCGUGCUCCGUUGAAUGGAGUUUAUCAUG
GGAUCUUCUCGAUCUAACAAAAACGACAAAUCUGCCACAAAGCUUGAGAGCAUCUUCGGAUGCAGAGGCGGCAGCCUUCGGUGGCUCGAAAGCGCCAACGAUCUCGACUAUGUCACGCAUAACGCAUGCUCCGUUGAAUGGAGUUUAUCAUG
GGAUCUUCUCGAUCUAACAAAAAGGACAGAUCUGCCACAAAGCUUUAGAGCAUCUUCGGAUGCAGAGGCGGCAGCCUUCGGUGGCGCGAUAGCGCCAACGUUCUCAACUAUGACACGCAAAACGCGUGCUCCGUUGAAUGGAGUUUAUCAUG
GGAUCUUCUCGAUCUAACAAAAAGGACAAAUCUGCCACGAAGCUUGAGAGCAUCUUCGGAUGCAGAUGCGGCAGCCUUCGGUAGAGCGAUAGCGCCAACGUUCGUAACUAUGACACGCAAAACGCGUGCUCCGUUAAAUGGAGUUUAUCAUG
GGAUCUUCUCGAUCUAACAAAAAGGACAAAUCUGCCACAAAGCUUGAGAGCAUCUUCGGAUGCAGAGGCGGCGGCCUUCGGUGGCACGAUAGCGCCAACGUUCUCAACUAUGACACGCAAAACGCGUGCUCCGUUGAAUGUAGUAUAUCUUG
GGAUCUUCUCGAUCUAACAAAAACGACAAAUCUGCCACAAAGCUAGAGAUUAUCUUCGGAUGCAGAGGCGGCAGGCUUCGGUGGGGCGAUAGCGCCAACGUUCUCAACUAUGACACGCAAAACGCUUGCUCCGUUGAAUUGAGUUUAUCAUG
GGAUCUUCUCGAUCUAACAAAAACGACAAAUCUGCCACAAAGCUUGAGAGCAUCUUCGGAUGCAGAGGCGGCAGCCGUCGGUGGCGCGAUAGCGCCAACGUUCUCAACUAUGACACGCAAAACGCGUGCUCCGUUGAAUGGAGUUUAUCAUG
GGAUCUUCUCGAUCUAACAAAAACGACAAAUCUGCCACAAAGCUUGAGAGCAUCUUCGGAUGCAGAGGCGGCAGCCUUCGGUGGCGCGAUAGCGCCAACGUUCUCAACUAUGACACGCAAAAAGCGUGCUCCGUUGAAUGGAGUUUAUCAUG
GGAUCUUCUCGAUCUAACAAAAACGACAAAUCUGCCACAAAGCUUGAGAGCAUCUUCGGAUGCAGAGGCGGCAGCCUUCGGUGGCGCGAUAGUGCCAACGUUGUCAACUAUGACACGCAAAACGCGUGCUCCGUUGAAUGGAGUUUAUCAUG
GGAUCUUCUCGAUCUAACAAAAAGGUCAAAUCUGCCACACAGCAUGAGAGCAUCUUCGGAUGCAGAGGCGGCAGCCUUUGGUGGCACGAUAGCGCCAACGUACUCAACUAUGACACGCAAAACGCGUGCGCCGUUGCAUGGAGUUUAUCAUG
GGAUCUUCUCGAUCUAACAAAAAGGAAAAAUCUGCCACAAAGCUUGAGAGCAUCUUCGGAUGCAGAGGCGGCAGCCGUCGGUGGCGCGAUAGCGCCAACGUUCUCAACUAUGAGACGCGAAACGCGGGCUCCGUUGAAUGGAGUUUAUCAUG
GGAUCUUCUCGAUCUAACAAAAAGGACAAAUCUGCCACUAAGCUUGAGAGCAUCUUCGGAUGCAGAGGCGGCAGCCUUCGGUGGCGCCAUAGCGCCAACGUUCUCAACUAUGACACGCAAAACGCGUGCUCAGUUGAAUCGAGUUUAUCAUG
GGAUCUUCUCGAUCUAACAAAAACGACAAAUCUGCCACAAAGCUUGAGAGCAUCAUCGGAUGCAGAGGCGGCAGCCUUCGGUGGCGCAAUAGCGCAAACGUUCUCAACUAUGACACGCCAAACGCGUGCUCCGUUGAAUGGACUUUAUCAUG
GGAUCUUCUCGAUCUAACAAAAACGACAAAUCUGCCACAAAGCUUGAGAGCAUCUUCGGAUGCAGAGGCGGCAGCGUUCGGUGGCGCGAUAGCGCCAACGUUCUCGACUAUGACACGCAAAGCGCGUGCUCCGUUGAAUUGAGUUUAUCAUG
GGAUCUUCUCGAUCUAACAAAAACGACAAAUCUGCCACAAAGCUUGACAGCAUCUUCGGAUGCAGAGGCGGCAGCCUUCGUUGGCGCGAUAGCACCAACGUUCUCAACUAUGACACGCAAAACGCGUGCUCCGUUGAAUGGAGUUUAUCAUG
GGAUCUUCUCGAUCUAACAAAAACGACAAAUCUGCCACAAACCUUGAGAGCAUCUUCGGAUGCAGAGGCGGCAGCCUUCGGUGGCGCGAUAUCGCCAACGUUCUCAACUAUGACACGCAAAACGGGUGCUCCGUUGAAUGGAGUUUAUCAUG
GGAUCUUCUCGAUCUAACAAAAACGACAAAUCUGCCACAAAGCUUGAGAUCAUCCUCGGAUGCAGAGGCGGUAGCUUUCGGUGGCGCGAUAGCGCCAACGUUCUCAACUUUGACACGCAAAACGCGUGCUCCGUUGAAUGGAGUUAAUCAUG
GGAUCUUCUCGAUCUAACAAAAACGACAAAUCUGCCACAAAGCUUGAGAGCAUCAUCGGAUGCAAAGGCGGCAGCCUUCGGUGGCGCGAUAGCGCCAAAGUUCUCAACUAUGACACGCAAAACGCGUGCUCCGUUGAAUGGAGUUUAUCAUG
GGAUCUUCUCGAUCUAACAAAAAGGACAAGUCUGCCACAAAGCUUGUGAGCCUCUUCGGCUGCAGAGGCGGCAGCAUUCGGUGGCGCGAUAGCGCCAACAUUCUCAACUAUGAAACGGAAAACGCGUGCUCCGUUGAAUAGAGUUUAUCAUG
GGAUCUUCUCGAUCUAACAAAAAGGACAUAGCUGCCACAAAGCUUGAGAGCAUCUUCGGAUGCAGAGGCGGCAGCCUUCGGUGGCGCGACAGCGCCAACGUUCUCAACUAUGACACGCAAAACGCGUGCUCCGUUGAAUGCAGUUUAUCAUG
GGAUCUUCUCGAUCUAACAAAAACGACAAAUCUGCCACAAAGCUUGAGACCAUCUUCGGAUGCAGAGGCGGCAGCCUUCGGUGGCGCGAUAGCGCGAACGUUCUCAACUUUGACACGCAAAACGCGUGCUCCGUUGAAUGGAGUUUAUCAUG
GGAUCUUCUCGAUCUAACAAAAACGACAAAUCUGCCACAAAGCUUGAGAGCAUCUUCCGAUGCAGAGGCGGCAGCCUUCGGUGGCGCGAUAGCGCCAACGUUCUCAACUAUGACACGCAAAACGCGUGCUCCGUUGAAUGGAGUUUAUCGUG
GGAUCUUCUCGAUCUAACAAAAACGACAAAUCUGCCACAAAGCUUGAGAGCAUCUUCGGAUGCAGAGGCGGCAGCCUUCGGUGGCGCGAUAGUGCCAACGUUCUCAACUAUGACACGCAAAACGCGUGCUCCGUUGAAUGGAGUUUAUCAUG
GGAUCUUCUCGAUCUAACAAAAACGACAAAUCUGCCACAAAGCUUGAGAGCAUCUUCGGAUGCAGAGGCGGCACCCUUCGGUGGCGCGAGAGCGCCAAGGUUCUCAACUAUGACACGCAAAACGCGAGCUCCGUUGAAUGGAGUUUAUCAUG
GGAUCUUCUCGAUCUAACAAAAACGACAAAUCUGCCACAAAGCUAGAGAGCAUCUUUGGAUGCAGAGGCGGCAGCCUUCGGUGACGCGAUAGCGCCAACGUUCUCAACUAUGACACGCAAAACGCGUGCUCCGUUGAAUGGAGUUUAUCAUG

Polymerase ribozyme fitness (log ratio), -1.75:
GGAUCUUCUCGAUCUAACAAAAAGGACAAAUCUGCCACAAAGCUUGAGAGCAUCUUCGGAUGCAGAGGCGGCAGCCUUCGGUGGCGCGAUAGCGCCAACGUUCUCAACUAUGACACGCAAAACGCGUGCUCCGUUGAAUGGAGUUUAUCAUG

Polymerase ribozyme fitness (log ratio), -3.98:
GGAUCUUCUCGAUCUAACAAAAAGGACAAUCCUGCCACAAAGCUUGAGAGCAUCUUCGGAUGCAGAGGCGGCAGCCUUCGGUGGCGCGAUAGCGCCAACGGUCUCAACUAUGACACGCAAAACGCGUGCUCCGUUGAAUGGAGUUUAUCAUG

Reference: the RNAGym collection of RNA variant scans (doi:10.1073/pnas.2313332121)
